Results reported in the supplement of paper PMC10126150.
Values marked as one replicate rest on one cluster of the flow cell; about a third of the high ones do not repeat.

System: ATP
Assay: switch fluorescence ratio, 500 uM ATP over buffer (Cy3 cluster intensity, sum of 5 cycles each) (fold (ratio)); higher = stronger signal-on switching upon ATP binding; sequences stand for … in TCGTCGGCAGCGTCAGATGTGTATAAGAGACAGTTTTTTTTTTTTTTTTTTTTTTTTT…TC
Conditions: aptamer strand: ATP DNA aptamer (quencher-CACCTGGGGGAGTATTGCGGAGGAAGG + anchor), 100 nM annealed; ATP concentration: 500 uM; one replicate
Summary of the method: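 Per cluster, summed Cy3 intensity from the target cycles was divided by that from the buffer cycles to give the fluorescence ratio, then averaged per switch-domain sequence. Clusters outside 100-1000 RFU were excluded. The Cy3-labelled switching-strand clusters, on a modified Illumina MiSeq flow-cell, were annealed to 100 nM quencher-labelled ATP aptamer and imaged in selection buffer, then after 15 min with 500 uM ATP at 22 °C, for five cycles with NaOH stripping and re-annealing between them.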
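Also: ATP exposure 15 min at 22 °C before imaging.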

Row | Sequence | switch fluorescence ratio
1 | GATCTTACTT | 0.997
2 | GCCCGAACGT | 0.976
3 | ATATTGGGTC | 1.03
4 | TTGGCAGTAT | 1.02
5 | AGCACATTGC | 1.04
6 | GATACCCAAG | 1.08
7 | TTAAAGCCCC | 1.11
8 | TAAGATGCCA | 0.979
9 | TTCAGTTTGT | 1.03
10 | GTTATTACCA | 1.01
11 | TAGGTCCGCT | 1.07
12 | GGACCGTTTC | 0.957
13 | AGTGAGGGGG | 0.947
14 | GGTAAGAAAA | 0.982
15 | TCGCCCATC | 1.13
16 | ATCTGTTATT | 1.02
17 | ATTTGGGTTG | 0.973
18 | TACGCCGGGT | 1.06
19 | TATCGGTGGG | 1.01
20 | TTAGCTAGTC | 0.933
21 | TATCACACA | 1.07
22 | GATAGAGTCC | 1.06
23 | GTGGGCAGTT | 1.05
24 | AGGTTGCGCT | 0.99
25 | CGCTTGTTCC | 1.05
26 | TTATTATGTA | 0.989

Row | Sequence | switch fluorescence ratio
27 | TCATTTTGGT | 1.05
28 | ACTTTTGGGC | 0.941
29 | TTCGCGGGTC | 1.02
30 | GTGCAAGTGT | 0.992
31 | TGCTGTTTTA | 1.01
32 | CCAGCGTGGG | 1.07
33 | TACGCAAGTA | 1.17
34 | GGTAGCGCGT | 0.997
35 | AATGACCCCG | 1.04
36 | TGGGAGCGTT | 2.41
37 | CCTCTGGTG | 1.36
38 | ATGGACTTAA | 0.984
39 | ACGACGGTAT | 1.35
40 | CAACGTCCAC | 1.45
41 | GACGGTGTGA | 0.999
42 | CTCATTTGCT | 0.976
43 | GGTAATGGAA | 0.982
44 | GCAAACCATT | 1.02
45 | CGCGGGCCAG | 0.99
46 | ATAGTAATTA | 0.97
47 | TTCTATCAGT | 0.997
48 | TGGGTATGTC | 1.03
49 | CGGTTGATAA | 0.963
50 | TCGTGTTCAA | 1.03
51 | CGAGAGACGC | 1.01
52 | GACTCAGAAT | 1.06

Row | Sequence | switch fluorescence ratio
53 | CGTTTAATTA | 0.99
54 | AGATGTCTGA | 0.951
55 | GATGGCCAC | 1
56 | CAGGAACGTG | 0.997
57 | CAACGGGTCT | 0.985
58 | GCCAGTAAAG | 1.03
59 | GAAACAGTTA | 0.966
60 | GAATAATGGT | 0.99
61 | TCGCAGCGGG | 1.08
62 | ACACTAAAAT | 1.05
63 | CAACCGTAT | 1.07
64 | AGGTTGCCAA | 0.984
65 | CATTCAGTCT | 1.03
66 | CTACACTTAG | 1.05
67 | AAATTAGGAG | 0.956
68 | GTTCCAGGAG | 1.3
69 | TTCGTTGCGG | 0.992
70 | CTAGGCGA | 1.08
71 | ATGGATCTTC | 0.999
72 | TGCCAACGGT | 0.968
73 | TAGCGCAACT | 1.14
74 | ACGGGGTACT | 1.06
75 | TCCACCGGGC | 1.17
76 | ACCTCGTGCG | 0.982
77 | GGAATCGTGG | 0.956
78 | ATACTAGGGT | 1.02

Row | Sequence | switch fluorescence ratio
79 | TGGCCCCAAT | 1.05
80 | GGGGACACG | 1.02
81 | TGGACCTTTC | 2.68
82 | TATCGAATAT | 0.991
83 | TATTTAAGCC | 1.02
84 | AGAAGTAAGC | 1.04
85 | ACTTGTTTC | 0.997
86 | AGTCTGCAA | 2.43
87 | AATGTG | 0.983
88 | GAGTGTAGCC | 1.07
89 | CTGTATATGT | 0.976
90 | TGAAGAACCT | 1.16
91 | GTGTCATAGA | 0.996
92 | AAGTGCCATC | 1.02
93 | TTGTGGTGCC | 0.982
94 | GAGGGCATAG | 0.997
95 | AATGGTGCAG | 1.03
96 | TAATAGGATG | 0.995
97 | ATGGCCGAAC | 1.14
98 | ACGAAAGAT | 1.08
99 | GGTGTAGTGA | 1.04
100 | TGATTCAGTG | 1
101 | TTGGATTCA | 0.995
102 | GGCAAAAATA | 0.994
103 | TAAAGTTTTC | 0.97
104 | ACGATAAAGT | 1.47

Row | Sequence | switch fluorescence ratio
105 | CACCATAGAC | 1.23
106 | ATTTATCAGG | 1.02
107 | GTGCTATTTT | 0.97
108 | GGGCAGGCCT | 1.02
109 | CGAACTAGTA | 0.969
110 | GGGGCAGAGT | 0.971
111 | TTTGTTAGTC | 0.995
112 | CGGCTGCACA | 1.75
113 | GCTAAGTTAA | 0.986
114 | GGGCGGTTAC | 1.12
115 | GGGTTACACG | 0.994
116 | CGATTAACGG | 1.01
117 | ATTATATGT | 0.978
118 | GGTCGAAGCT | 0.971
119 | GTGGCGGGTG | 1.02
120 | GTGGTGTAGG | 1
121 | GAGCATCCGT | 1.03
122 | AGAAATGGCC | 1.02
123 | GATAATATAT | 0.989
124 | GAGGGTGCGC | 1.4
125 | GCGATTCGTT | 0.982
126 | CGATTATTGT | 1.02
127 | GACATATTTA | 1.04
128 | GTTGTAAAGC | 1.02
129 | GATTATTGTC | 0.94
130 | ACATAGGGTT | 1.03

Row | Sequence | switch fluorescence ratio
131 | TTCGGTATAA | 1.05
132 | AGGATTACGG | 1.02
133 | GCATTTTGGT | 0.942
134 | ATCGTGGCTA | 0.975
135 | GGCTGCTGGT | 1.05
136 | GGGGCCCGAT | 1.01
137 | GATACATT | 0.988
138 | GGTTTAGTCT | 1.02
139 | AACGGCAAAT | 1.06
140 | TGAGTTTAGT | 1
141 | TCGAGAGCG | 0.998
142 | GTCGGCCGAA | 0.997
143 | CATGCGGGCA | 0.972
144 | GGATTGGTG | 0.98
145 | GGAAAATGGT | 0.987
146 | ATTACTGAAG | 1.05
147 | ACGTGCCCTG | 1.01
148 | ATTTGTAAGG | 0.975
149 | TGCGCAACGC | 1.52
150 | TCCAGCTAAT | 1.01
151 | CCATGTTCAT | 1.02
152 | TCTGCAGCCA | 2.44
153 | ACACGCACGG | 1.57
154 | TGAGCGTTCT | 1
155 | TCGGGCATCT | 0.969
156 | TAGCGACTTA | 1.01

Row | Sequence | switch fluorescence ratio
157 | CTTCATAAAC | 1.01
158 | AACCGACCC | 2.81
159 | ATAGTAAATA | 1.01
160 | CTTCATTTAG | 1.03
161 | ATTGATACGC | 1.1
162 | AGTGGGTGCG | 0.991
163 | TTGGTCGGAA | 0.977
164 | AACCTATGTA | 1.02
165 | AGAGGCTGAG | 0.951
166 | AGAACGGATG | 1.03
167 | CGCCCTGTGT | 1.29
168 | TACGGCCTGT | 1.01
169 | ATGGCTACGA | 1.03
170 | GCGGGGAGAG | 1.04
171 | CTGCGTGAGT | 0.989
172 | TCTATTCCGT | 0.971
173 | GGGCAGAGCG | 0.967
174 | TTTTCTGTAA | 0.998
175 | GCGCTTTAAG | 0.983
176 | CTTTCAGAAT | 1
177 | CGAGTGACCT | 1.09
178 | TTTAGCTGCT | 0.955
179 | CTGTTTTTTA | 0.984
180 | CCATGGAAGT | 0.98
181 | TGGTGGGTCA | 1
182 | TGGCGTTAA | 1.08

Row | Sequence | switch fluorescence ratio
183 | GTGAAGCTCC | 1.1
184 | GTGATGAGG | 0.998
185 | AAGACTCTAC | 1.23
186 | CGGTACAACG | 1.03
187 | AGACTGGTGT | 1.02
188 | CCCAGCGGTC | 2.52
189 | ATATAGGGGT | 1
190 | GAGCATCCTT | 0.99
191 | AGCGGGACGG | 0.983
192 | CCTTGGGAA | 1
193 | ATGCATGGTC | 1.04
194 | AGGACTCAGT | 1.01
195 | CTTGTATCTG | 1
196 | ATAGGCATGG | 1
197 | GTTGCTGGAA | 0.993
198 | AACCTTTTCG | 1.06
199 | TCTATGTGTA | 1.03
200 | TTAAGAAAGT | 1.03
201 | AGATTTTGAG | 1.01
